Variants at the floor of the assay are shown more often than the library holds them.
B1: TPR 5TU (parent)
chain: GGAUCUUCUCGAUCUAACAAAAAAGACAAAUCUGCCACAAAGCUUGAGAGCAUCUUCGGAUGCAGAGGCGGCAGCCUUCGGUGGCGCGAUAGCGCCAACGUUCUCAACUAUGACACGCAAAACGCGUGCUCCGUUGAAUGGAGUUUAUCAUG

Variants of: B1
Test: polymerase ribozyme fitness, log enrichment relative to wild type (log ratio); higher = more active; in vitro selection for triplet polymerase activity
Summary of the method: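 Fitness is a logarithmic measure of how a genotype enriched relative to the wild type, with replicate averages weighted by inverse variance. The logarithm uses base 2, and enrichment came from Illumina sequencing of input and output libraries. Those libraries were PCR-built, transcribed mutants of each subunit of a heterodimeric triplet polymerase ribozyme, passed through one triplicate in vitro selection round that included frozen incubation at −7 °C, gel excision of extended constructs and streptavidin-bead capture. Genotypes were kept only if they had ≥10 input reads and ≥1 read per output.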

Polymerase ribozyme fitness (log ratio), ≤ -4.2:
GGAUCUUCUCGAUCUAACAAAAAAGACAAAUCUGCCACAAAGCUUGAGAGCAUCUUCGGAUGCAGAGGCGGCAGCCUUCGGUGGCGCGAUAGAGCCAAGGUUCUCAACUAUGACACGCAAAACGCGCGCUCCGUUGAAUGGAGUUUAUCAUG [C93A C99G U127C]
GGAUCUUCUCGAUCUAACAAAAAAGACAAAUCUGCCACAAAGCUUGAGAGCAUCUUCGGAUGCAGAGGCGGCAGCCUUCGGUGGCGCGAUAGAGCCAACGUUCUCAACUAUGACACGGAAAACGCGUGCUCCGUUGAAUGGUGUUUAUCAUG [C93A C118G A142U]
GGAUCUUCUCGAUCUAACAAAAAAGACAAAUCUGCCACAAAGCUUGAGAGCAUCUUCGGAUGCAGAGGCGGCAGCCUUCGGUGGCGCGAUAGAGCCAACGUUCUCAACUAUGACACGCAAAAUGCGUGCUCCGUUGUAUGGAGUUUAUCAUG [C93A C123U A137U]
GGAUCUUCUCGAUCUAACAAAAAAGACAAAUCUGCCACAAAGCUUGAGAGCAUCUUCGGAUGCAGAGGCGGCAGCCUUCGGUGGCGCGAUAGAGCCAACGUUCUCAACUAGGACACGGAAAACGCGUGCUCCGUUGAAUGGAGUUUAUCAUG [C93A U111G C118G]
GGAUCUUCUCGAUCUAACAAAAAAGACAAAUCUGCCACAAAGCUUGAGAGCAUCUUCGGAUGCAGAGGCGGCAGCCUUCGGUGGCGCGAUAGGGCCAACGUUCUCAUCUAUGACACGCAAAACGCGUGCUCCGUUGAUUGGAGUUUAUCAUG [C93G A107U A138U]
GGAUCUUCUCGAUCUAACAAAAAAGACAAAUCUGCCACAAAGCUUGAGAGCAUCUUCGGAUGCAGAGGCGGCAGCCUUCGGUGGCGCGAUAGGGCCAACGUUCUCAACUAUGACUCGCAAAACGCGUGCUCCGUUGAAUGGAGUUUAUCAUG [C93G A115U]
GGAUCUUCUCGAUCUAACAAAAAAGACAAAUCUGCCACAAAGCUUGAGAGCAUCUUCGGAUGCAGAGGCGGCAGCCUUCGGUGGCGCGAUAGGGCCAACGUUCUCAACUAUGACAGGCAAAACGCGUGCUCCGUUGAAUGUAGAUUAUCAUG [C93G C116G G141U U144A]
GGAUCUUCUCGAUCUAACAAAAAAGACAAAUCUGCCACAAAGCUUGAGAGCAUCUUCGGAUGCAGAGGCGGCAGCCUUCGGUGGCGCGAUAGGGCCAACGUUCUCAACUAUGACACGCAAAACGCGUGCUCGGUUGAAGGGAGUUUAUCAUG [C93G C132G U139G]
GGAUCUUCUCGAUCUAACAAAAAAGACAAAUCUGCCACAAAGCUUGAGAGCAUCUUCGGAUGCAGAGGCGGCAGCCUUCGGUGGCGCGAUAGGGCCAACAUUCUCAACUUUGACACGCAAAACGCGUGCUCCGUUGAAUGGAGUUUAUCAUG [C93G G100A A110U]
GGAUCUUCUCGAUCUAACAAAAAAGACAAAUCUGCCACAAAGCUUGAGAGCAUCUUCGGAUGCAGAGGCGGCAGCCUUCGGUGGCGCGAUAGGGCCAACGUUCUCAACUAUGACACGCAAAACGCGUGCUCCGUUGAAUCGACUUUAUCAUG [C93G G140C G143C]
GGAUCUUCUCGAUCUAACAAAAAAGACAAAUCUGCCACAAAGCUUGAGAGCAUCUUCGGAUGCAGAGGCGGCAGCCUUCGGUGGCGCGAUAGGGCCAACGUUCUCAACUAUGACACGCAAAACGCGUGCUCCGUUGAAUGCAGAUUAUCAUG [C93G G141C U144A]
GGAUCUUCUCGAUCUAACAAAAAAGACAAAUCUGCCACAAAGCUUGAGAGCAUCUUCGGAUGCAGAGGCGGCAGCCUUCGGUGGCGCGAUAGGGCCAACGUGCUCAGCUAUGACACGCAAAACGCGUGCUCCGUUGAAUGGAGUUUAUCAUG [C93G U102G A107G]
GGAUCUUCUCGAUCUAACAAAAAAGACAAAUCUGCCACAAAGCUUGAGAGCAUCUUCGGAUGCAGAGGCGGCAGCCUUCGGUGGCGCGAUAGUGCCAACGUUCUCAGCUAUGACACGGAAAACGCGUGCUCCGUUGAAUGGAGUUUAUCAUG [C93U A107G C118G]
GGAUCUUCUCGAUCUAACAAAAAAGACAAAUCUGCCACAAAGCUUGAGAGCAUCUUCGGAUGCAGAGGCGGCAGCCUUCGGUGGCGCGAUAGUGCUAACGUUCUCAACUAUGCCACGCAAAACGCGUGCUCCGUUGAAUGGAAUUUAUCAUG [C93U C96U A113C G143A]
GGAUCUUCUCGAUCUAACAAAAAAGACAAAUCUGCCACAAAGCUUGAGAGCAUCUUCGGAUGCAGAGGCGGCAGCCUUCGGUGGCGCGAUAGUGCCAACGUUCUUAACUAUGCCACGCAAAACGCGUGCUCCGUUGAAUGGAGUUUACCAUG [C93U C105U A113C U148C]
GGAUCUUCUCGAUCUAACAAAAAAGACAAAUCUGCCACAAAGCUUGAGAGCAUCUUCGGAUGCAGAGGCGGCAGCCUUCGGUGGCGCGAUAGUGCCAACGUUCUCAACUAUGACAGGCAAAACGCGUGCUCCGUUGAAUGGAGUUUAUCGUG [C93U C116G A150G]
GGAUCUUCUCGAUCUAACAAAAAAGACAAAUCUGCCACAAAGCUUGAGAGCAUCUUCGGAUGCAGAGGCGGCAGCCUUCGGUGGCGCGAUAGUGCCAACGUUCUCAACUAUGACACGCAAAACGCGUGUUCCGUUGAAUGGCGUUCAUCAUG [C93U C129U A142C U146C]
GGAUCUUCUCGAUCUAACAAAAAAGACAAAUCUGCCACAAAGCUUGAGAGCAUCUUCGGAUGCAGAGGCGGCAGCCUUCGGUGGCGCGAUAGCACCUACGUUCUCAACUAUGACAAGCAAAACGCGUGAUCCGUUGAAUGGAGUUUAUCAUG [G94A A97U C116A C129A]
GGAUCUUCUCGAUCUAACAAAAAAGACAAAUCUGCCACAAAGCUUGAGAGCAUCUUCGGAUGCAGAGGCGGCAGCCUUCGGUGGCGCGAUAGCCCCAACGUUCUCAUAUAUGACACGCAAAACGCGUGCUCCGUUGAAUGGAGUUUAUCAUG [G94C A107U C108A]
GGAUCUUCUCGAUCUAACAAAAAAGACAAAUCUGCCACAAAGCUUGAGAGCAUCUUCGGAUGCAGAGGCGGCAGCCUUCGGUGGCGCGAUAGCCCCAACGUUCUCAACUAUGACGCGCAAAACGCGUGCUCCGUUGCAUGGAGUUUAUCAUG [G94C A115G A137C]
GGAUCUUCUCGAUCUAACAAAAAAGACAAAUCUGCCACAAAGCUUGAGAGCAUCUUCGGAUGCAGAGGCGGCAGCCUUCGGUGGCGCGAUAGCCCUAACGUUCUCAACUAUGACACGCGAAACGUGUGCUCCGUUGAAUGGAGUUUAUGAUG [G94C C96U A119G C125U C149G]
GGAUCUUCUCGAUCUAACAAAAAAGACAAAUCUGCCACAAAGCUUGAGAGCAUCUUCGGAUGCAGAGGCGGCAGCCUUCGGUGGCGCGAUAGCCCCAACGUUCUCAACUAUGAAACGCAAAACGCGAGCUCCGUUGAAUGGAGUUUAUCAUG [G94C C114A U127A]
GGAUCUUCUCGAUCUAACAAAAAAGACAAAUCUGCCACAAAGCUUGAGAGCAUCUUCGGAUGCAGAGGCGGCAGCCUUCGGUGGCGCGAUAGCCCCAACGUUCUCAACUAUGACAUGCAAUACGCGUGCUCCGUUGAAUCGAGUUUAUCAUG [G94C C116U A121U G140C]
GGAUCUUCUCGAUCUAACAAAAAAGACAAAUCUGCCACAAAGCUUGAGAGCAUCUUCGGAUGCAGAGGCGGCAGCCUUCGGUGGCGCGAUAGCCCCAACGUUCUCAACUAUGACACGCAAAACGCGUGCUGCGUUGAAUGGAGUUUAUAAUG [G94C C131G C149A]
GGAUCUUCUCGAUCUAACAAAAAAGACAAAUCUGCCACAAAGCUUGAGAGCAUCUUCGGAUGCAGAGGCGGCAGCCUUCGGUGGCGCGAUAGCUCCAACGUUCUCAACUAUGACACGCAAAACGCGUGCUCCGUUGAAUCGAGUUUAUCAGG [G94U G140C U151G]
GGAUCUUCUCGAUCUAACAAAAAAGACAAAUCUGCCACAAAGCUUGAGAGCAUCUUCGGAUGCAGAGGCGGCAGCCUUCGGUGGCGCGAUAGCGACAAUGUUCUCAACUAUGACACGCAAAACGCGUGCUCCGUUGCAUGGAGUUUAUCAGG [C95A C99U A137C U151G]
GGAUCUUCUCGAUCUAACAAAAAAGACAAAUCUGCCACAAAGCUUGAGAGCAUCUUCGGAUGCAGAGGCGGCAGCCUUCGGUGGCGCGAUAGCGCAACCGUUCUCAACUAUGACACGCAAAACGCGUGCUCCGUUGAAUGGCUUUUAUCAUG [C96A A98C A142C G143U]
GGAUCUUCUCGAUCUAACAAAAAAGACAAAUCUGCCACAAAGCUUGAGAGCAUCUUCGGAUGCAGAGGCGGCAGCCUUCGGUGGCGCGAUAGCGCAAACGUUCUCUACUAUGACACGCAAAACGCGUGCUCCGUUGAAUCGAGUUUAUCAUG [C96A A106U G140C]
GGAUCUUCUCGAUCUAACAAAAAAGACAAAUCUGCCACAAAGCUUGAGAGCAUCUUCGGAUGCAGAGGCGGCAGCCUUCGGUGGCGCGAUAGCGCUAACAUUCUCAACUAUGACACGCAAAACGCGUGCUCCGUUGAACGGAGUUUAUCAUG [C96U G100A U139C]
GGAUCUUCUCGAUCUAACAAAAAAGACAAAUCUGCCACAAAGCUUGAGAGCAUCUUCGGAUGCAGAGGCGGCAGCCUUCGGUGGCGCGAUAGCGCUAACGUUCUCAACUAUGACACGCAAAACGCGAGCUCCGUUGAAUGGAGUUUAUCAUG [C96U U127A]
GGAUCUUCUCGAUCUAACAAAAAAGACAAAUCUGCCACAAAGCUUGAGAGCAUCUUCGGAUGCAGAGGCGGCAGCCUUCGGUGGCGCGAUAGCGCCCACGUUCUCAGCUAUGACACGCAAAACGCGUGCUCCGUUGAAUGGAGUUUAUCAUG [A97C A107G]
GGAUCUUCUCGAUCUAACAAAAAAGACAAAUCUGCCACAAAGCUUGAGAGCAUCUUCGGAUGCAGAGGCGGCAGCCUUCGGUGGCGCGAUAGCGCCCACGUUCUCAAGUAUGACACGCACAACGCGUGCUCCGUGGAAUGGAGUUUAUCAUG [A97C C108G A120C U135G]
GGAUCUUCUCGAUCUAACAAAAAAGACAAAUCUGCCACAAAGCUUGAGAGCAUCUUCGGAUGCAGAGGCGGCAGCCUUCGGUGGCGCGAUAGCGCCAGCGUUCCCAACUGUGACACGCUAAACGCGUGCACCGUUGAAUGGAGUUUAUCAUG [A98G U104C A110G A119U U130A]
GGAUCUUCUCGAUCUAACAAAAAAGACAAAUCUGCCACAAAGCUUGAGAGCAUCUUCGGAUGCAGAGGCGGCAGCCUUCGGUGGCGCGAUAGCGCCAUCGUUCUCAACUAUGACACGCAAAACGCGUUCUCCGUUGAAUCGAGUUUAUCAUG [A98U G128U G140C]
GGAUCUUCUCGAUCUAACAAAAAAGACAAAUCUGCCACAAAGCUUGAGAGCAUCUUCGGAUGCAGAGGCGGCAGCCUUCGGUGGCGCGAUAGCGCCAAGGUUCUCAACUAUGACACGCAAAACGCGUGCUCCGUUGAACGGCGUUUAUCAUG [C99G U139C A142C]
GGAUCUUCUCGAUCUAACAAAAAAGACAAAUCUGCCACAAAGCUUGAGAGCAUCUUCGGAUGCAGAGGCGGCAGCCUUCGGUGGCGCGAUAGCGCCAAUGUUAUCAACUAUGACACGCAAAACGCGGGCUCCGUUGAAUGAAGUUUAUCAUG [C99U C103A U127G G141A]
GGAUCUUCUCGAUCUAACAAAAAAGACAAAUCUGCCACAAAGCUUGAGAGCAUCUUCGGAUGCAGAGGCGGCAGCCUUCGGUGGCGCGAUAGCGCCAACAUUCUCAUCUAUGUCACGCAAAACGCGUGCUCCGUUGAAUGGAGUUUAUCAUG [G100A A107U A113U]
GGAUCUUCUCGAUCUAACAAAAAAGACAAAUCUGCCACAAAGCUUGAGAGCAUCUUCGGAUGCAGAGGCGGCAGCCUUCGGUGGCGCGAUAGCGCCAACAUUCUCAACUAUGACACGCAAAACGCGUGCUCCGUUGAAUGGAGUUUUUCAUG [G100A A147U]

From the RNAGym collection of RNA variant scans (doi:10.1073/pnas.2313332121)
